# Test results as given in PubChem BioAssay (NCATS).
# Inconclusive means that the source gave no clear call. Such entries were picked first, then a sample of the others. For some of these results: Potencies of inconclusive entries are left out as doubtful fits. The source made the active and inactive calls. Unless noted, calls follow the shape of the dose curve; as a rule, active = well fitted curve in the direction sought with a large enough effect; inconclusive = small, poorly fitted or top-dose-only effect, or another doubt; inactive = no such curve, though single readings can be large; an effect the other way counts as inactive or inconclusive.
# Tests used:
# [1] = test system: Zika virus NS2B-NS3 protease (linked construct); experiment: Primary screen NINDS Rhodamine qHTS for Zika virus inhibitors (AID 1347160); also: nearly all actives have a fitted effect of over 55% in size
# How it was run: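 Each compound, titrated, sat 15 min with 25 nM linked protease before 1.5 microM Rhodamine110 substrate went in. Fluorescence gain over the next 15 min, in pH 8.0 Tris with Tween 20, gave Hill-fitted curves.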
# [2] = qHTS of pediatric cancer cell lines to identify multiple opportunities for drug repurposing: Primary screen for SJ-GBM2 cells (AID 1347091)
# How it was run: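 Cell viability, CellTiter-Glo luminescence; 500-1,000 cells/well, 8- or 11-point titration, 48 h compound exposure at 37 degrees C, 5% CO2. Controls: DMSO neutral, bortezomib 2.3 µM final as positive.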
# [3] = qHTS of pediatric cancer cell lines to identify multiple opportunities for drug repurposing: Primary screen for A673 cells (AID 1347092); details: A673 Ewing sarcoma viability, CellTiter-Glo ATP luminescence, 48 h; activity change, negative = cytotoxic: at 46 µM (top of the series); also: nearly all actives have a fitted effect of over 45% in size
# How it was run: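 Cells are plated, rested 5 h, dosed by pintool, incubated 48 h, then lysed with CellTiter-Glo and read by luminescence. DMSO is the neutral control; bortezomib at 2.3 uM final is the positive control.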
# [4] = qHTS of pediatric cancer cell lines to identify multiple opportunities for drug repurposing: Primary screen for SK-N-MC cells (AID 1347093); details: SK-N-MC viability, CellTiter-Glo luminescence, 48 h; activity change, negative = cytotoxic: at 46 µM (top of the series)
# How it was run: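 Metabolically active cells were quantified by ATP-dependent luminescence (CellTiter-Glo, 15 min at room temperature) following 48 h treatment. Cells had been plated at 500-1,000 per well and settled for 5 h beforehand.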
# [5] = qHTS of pediatric cancer cell lines to identify multiple opportunities for drug repurposing: Primary screen for BT-37 cells (AID 1347094)
# How it was run: (§1)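 ATP-based luminescence (CellTiter-Glo) quantifies viability after a 48-hour exposure. Compounds are dosed across 8 or 11 final concentrations; DMSO and 2.3 µM bortezomib serve as controls.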
# [6] = qHTS of pediatric cancer cell lines to identify multiple opportunities for drug repurposing: Primary screen for NB-EBc1 cells (AID 1347095)
# How it was run: as §1
# [7] = qHTS of pediatric cancer cell lines to identify multiple opportunities for drug repurposing: Primary screen for Saos-2 cells (AID 1347097); details: Saos-2 viability, CellTiter-Glo ATP luminescence, 48 h; activity change, negative = cytotoxic: at 46 µM (top of the series); also: nearly all actives have a fitted effect of over 40% in size
# How it was run: as §1
# [8] = qHTS of pediatric cancer cell lines to identify multiple opportunities for drug repurposing: Primary screen for OHS-50 cells (AID 1347103); also: nearly all actives have a fitted effect of over 40% in size
# How it was run: (§2)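 Cells (500-1,000/well) rested 5 h, then received compounds for 48 h; metabolically active cells were measured by CellTiter-Glo luminescence. Final concentrations spanned up to 46 µM (MIPE, 11-point) or 0.59 nM-46 µM (NPC, 8-point) in primary screens, 11-point in follow-ups.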
# [9] = A High-Content qHTS Against Drug Library for the Identification of Small Molecules that Inhibit DYT1 Early Onset Primary Dystonia-Associated Cell Pathology (AID 1645839; calls by dose curve)
# How it was run: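 High-content imaging quantified EGFP-TorsinA mislocalization in HEK293-derived cells inducibly expressing DYT1 mutant torsinA, after 48 h exposure to compound given together with tetracycline induction. Cell count served as a toxicity channel alongside %pathology.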
# [10] = target: Cytochrome P450 2D6 (Homo sapiens) (UniProt P10635); experiment: Cytochrome P450 family 2 subfamily D member 6 (CYP2D6) small molecule antagonists: luciferase biochemical (cell-free) qHTS assay (AID 1645840; active = well fitted curve in the direction sought with a large enough effect in the repeat runs; inconclusive = weak or mixed curves; inactive = no such curve, though single readings can be large; an effect the other way counts as inactive or inconclusive; also: nearly all actives have a fitted effect of over 55% in size)
# Sequence of UniProt P10635 (P10635 whole entry, looked up): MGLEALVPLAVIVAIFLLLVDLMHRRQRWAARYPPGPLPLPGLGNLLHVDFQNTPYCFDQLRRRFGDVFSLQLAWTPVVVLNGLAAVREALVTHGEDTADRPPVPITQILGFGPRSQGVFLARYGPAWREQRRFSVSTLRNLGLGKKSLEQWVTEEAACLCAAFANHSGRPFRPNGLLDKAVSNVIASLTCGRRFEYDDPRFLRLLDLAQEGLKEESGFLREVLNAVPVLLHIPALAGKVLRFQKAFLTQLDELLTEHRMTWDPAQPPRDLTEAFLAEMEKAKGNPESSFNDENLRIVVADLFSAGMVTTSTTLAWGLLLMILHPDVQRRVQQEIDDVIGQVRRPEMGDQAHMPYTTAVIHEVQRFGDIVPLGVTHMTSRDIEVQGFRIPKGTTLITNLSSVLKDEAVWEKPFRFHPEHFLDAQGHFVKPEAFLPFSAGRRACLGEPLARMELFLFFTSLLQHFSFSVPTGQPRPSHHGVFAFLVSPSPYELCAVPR
# How it was run: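 P450-Glo CYP2D6 system: proluciferin substrate converted by enzyme to luciferin, read by luminescence proportional to activity. Enzyme-substrate mix with compound 10 min at room temperature, then NADPH regeneration 1 h before detection reagent.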
# [11] = target: Cytochrome P450 2C9 (Homo sapiens) (UniProt P11712); experiment: Cytochrome P450 family 2 subfamily C member 9 (CYP2C9) small molecule antagonists: luciferase biochemical (cell-free) qHTS assay (AID 1645842; active = well fitted curve in the direction sought with a large enough effect in the repeat runs; inconclusive = weak or mixed curves; inactive = no such curve, though single readings can be large; an effect the other way counts as inactive or inconclusive; also: nearly all actives have a fitted effect of over 55% in size)
# Sequence of UniProt P11712 (P11712 whole entry, looked up): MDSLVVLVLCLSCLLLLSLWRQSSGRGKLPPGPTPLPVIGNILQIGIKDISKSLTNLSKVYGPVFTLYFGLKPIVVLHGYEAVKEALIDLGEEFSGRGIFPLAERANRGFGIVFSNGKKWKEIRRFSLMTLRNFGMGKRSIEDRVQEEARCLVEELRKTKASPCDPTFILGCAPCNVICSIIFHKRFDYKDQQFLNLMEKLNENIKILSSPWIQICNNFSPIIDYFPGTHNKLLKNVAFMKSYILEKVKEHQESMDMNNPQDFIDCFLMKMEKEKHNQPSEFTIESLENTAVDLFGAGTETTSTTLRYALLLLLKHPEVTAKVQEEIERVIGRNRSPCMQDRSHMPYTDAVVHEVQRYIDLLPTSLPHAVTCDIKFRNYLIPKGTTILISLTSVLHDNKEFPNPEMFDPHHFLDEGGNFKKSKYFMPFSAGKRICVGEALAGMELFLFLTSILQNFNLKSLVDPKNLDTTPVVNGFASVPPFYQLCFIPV
# How it was run: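 P450-Glo CYP2C9 system: proluciferin substrate with enzyme in mix containing 0.4% BSA, 10 min at room temperature, then NADPH regeneration solution added and incubated 1 h at 37C. Detection reagent stopped reaction; luminescence read after 20 min as RLU.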
# [12] = Primary redox qHTS assay for identification of artifact compounds. (AID 1845223)
# How it was run: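 Redox-cycling detection via DTT (250 uM final) oxidation coupled to Amplex Red (25 uM)/HRP (250 mU/mL) in HBSS. 15 min preincubation plus 30 min after DTT, room temperature. Ex/Em 525/598 nm; 4-parameter Hill fit against DMSO and 10 uM DA3003.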
# HeLa = experiment: Primary qHTS to identify gynecologic anti-cancer compounds using libraries of approved drugs and bioactive compounds (AID 1345084); details: Gynecologic cancer cell panel viability, ATPlite luminescence, 48 h; series mostly up to 57.5 µM; also: nearly all actives have a fitted effect of over 55% in size
# How it was run: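 Cytotoxicity screen measuring ATP content by luciferase luminescence. Each compound is applied at five concentrations for 48 h at 37 C with 5% CO2.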
# [13] = qHTS of pediatric cancer cell lines to identify multiple opportunities for drug repurposing: Primary screen for BT-12 cells (AID 1347101); also: nearly all actives have a fitted effect of over 25% in size
# How it was run: as §2
# [14] = Primary qHTS for small molecule stabilizers of the endoplasmic reticulum resident proteome: Secreted ER Calcium Modulated Protein (SERCaMP) assay (AID 1508630); details: SH-SY5Y GLuc-SERCaMP (Gaussia luciferase released on ER calcium loss) secretion, thapsigargin, luminescence; series mostly up to 38.4 µM
# How it was run: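 The SH-SY5Y reporter protocol was run at 3 concentrations up to 38.3 uM (primary) or 11 concentrations (follow-up): 16 h compound, 100 nM thapsigargin for 4 h, then extracellular luciferase luminescence.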
# MKL-1 = experiment: qHTS assay to identify novel small-molecules to repurpose for Merkel cell carcinoma treatment (AID 1296009); details: MCC and control cell lines, CellTiter-Glo viability, 72 h; series mostly up to 46 µM; also: nearly all actives have a fitted effect of over 60% in size
# How it was run: (§3)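 Cell viability measured by CellTiter-Glo following 72 hr compound treatment at 37 degree celsius, with NPC and MIPE libraries tested in 8- and 11-point concentration series.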
# WaGa = experiment: as above; details: MCC and control cell lines, CellTiter-Glo viability, 72 h; series mostly up to 46 µM
# How it was run: as §3
# Potency is read from the fitted curve at half-maximal effect; tags tell the direction and shape of the fitted curve.
smiles,measurement,setting,value
Nc1nc2c(c(N3CC[C@@H](N)C3)n1)CCCc1ccccc1-2,Potency,[1],inactive
N/C(=N\N=C\c1ccc(Cl)cc1)N/N=C/c1ccc(Cl)cc1,Potency,[2],"inconclusive [cytotoxic, single point]"
same,Potency,[3],"inconclusive [cytotoxic, single point]"
same,Potency,[4],"inconclusive [cytotoxic, single point]"
same,Potency,[5],"inconclusive [cytotoxic, single point]"
same,Potency,[6],"inconclusive [cytotoxic, single point]"
same,Potency,[7],"inconclusive [cytotoxic, single point]"
same,Potency,[8],"inconclusive [cytotoxic, single point]"
same,Potency,[9],"inconclusive [inhibitor, single point]"
same,Potency,[10],active: 15.5 µM
CCn1c(-c2nonc2N)nc2c(C#CC(C)(C)O)ncc(OCC3CCCNC3)c21 (centres undefined),Potency,[10],"inconclusive [inhibitor, single point]"
same,Potency,[11],"inconclusive [inhibitor, full curve]"
C=CC(=O)Nc1cc(Nc2nccc(-c3cn(C)c4ccccc34)n2)c(OC)cc1N(C)CCN(C)C,Potency,[11],"inconclusive [inhibitor, partial curve, poor fit]"
same,Potency,[12],"inconclusive [activator, single point]"
same,Potency,HeLa,"inconclusive [cytotoxic, single point]"
COc1cc(/C=C2\CCCN([C@@H](C)c3ccc(F)cc3)C2=O)ccc1-n1cnc(C)c1,Potency,[10],"inconclusive [inhibitor, single point]"
same,Potency,[11],"inconclusive [inhibitor, single point]"
same,Potency,HeLa,inactive
c1ccc(-c2ccc(CNc3nc(-c4ccccn4)nnc3-c3ccccc3)cc2)cc1,Potency,[11],"inconclusive [inhibitor, single point]"
same,Potency,HeLa,"inconclusive [cytotoxic, single point]"
Cc1nc(Nc2ccc(F)cc2)nc(N2CCc3ccccc3C2C)c1C (centres undefined),Potency,[10],active: 7.56 µM
CC(C)(C[C@@](O)(Cc1cc2ccncc2[nH]1)C(F)(F)F)c1cc(F)ccc1O,Potency,[10],active: 0.134 µM
COc1ccc(N(C(=O)Nc2c(C)cccc2C)c2cc(Nc3ccc(N4CCN(C)CC4)cc3)ncn2)c(OC)c1,Potency,[10],"inconclusive [inhibitor, single point]"
same,Potency,HeLa,inactive
COC1CC(O[C@H]2CC[C@]3(C)C4CC[C@]5(C)C(C6=CC(=O)OC6)=CCC56OC46CC[C@@H]3C2)OC(C)C1O[C@@H]1O[C@H](CO[C@@H]2O[C@H](CO)[C@@H](O)[C@H](O)[C@H]2O)[C@@H](O)[C@H](O)[C@H]1O (some centres undefined),Potency,HeLa,active: 3.55 µM
CC(C)C[C@@H](C(=O)N[C@@H](Cc1ccc(OCc2ccccc2)cc1)C(=O)NC(C)(C)C)N(C)Cc1ccc(C(C)(C)C)cc1,Potency,[11],"inconclusive [inhibitor, partial curve]"
O=C(Nc1ccc(-n2nc(C(F)(F)F)cc2C(F)(F)F)cc1)c1ccncc1F,Potency,[10],"inconclusive [inhibitor, single point]"
CN1CCC(NC(=O)c2cc(-c3c(O)cc(O)cc3Oc3ccc([N+](=O)[O-])cc3)on2)CC1,Potency,[12],"inconclusive [activator, single point]"
Cc1ccc(S(=O)(=O)Cc2nc(-c3ccc(C(=O)NCc4cccnc4)cc3)oc2C)cc1,Potency,[10],inactive
same,Potency,[11],"inconclusive [inhibitor, partial curve]"
same,Potency,HeLa,inconclusive
CN(C)CCCCCCNC(=O)c1cccc(-c2cc(O)c3ncccc3c2)c1,Potency,[12],"inconclusive [activator, full curve]"
Cc1cc(-c2nc(-c3ccc(OC(F)(F)F)cc3)no2)nn1Cc1ccnc(N2CCN(C3CC3)CC2)c1,Potency,[10],"inconclusive [inhibitor, single point]"
CN(c1ccc(NC(=O)Nc2ccccc2)cc1)S(=O)(=O)c1cnn(-c2ccc(F)cc2)c1,Potency,[10],"inconclusive [inhibitor, partial curve, poor fit]"
same,Potency,HeLa,"inconclusive [cytotoxic, single point]"
O=C(Nc1cccc(C(F)(F)F)c1)Nc1ccc(Br)cc1-c1nn[nH]n1,Potency,[1],active: 17.8 µM
same,Potency,[10],"inconclusive [inhibitor, single point]"
same,Potency,[11],"inconclusive [inhibitor, single point]"
same,Potency,HeLa,"inconclusive [cytotoxic, single point]"
OCc1ccc(-c2ccc(-c3ccc(CO)s3)o2)s1,Potency,[2],active: 16.6 µM
same,Potency,[3],active: 0.148 µM
same,Potency,[4],"inconclusive [cytotoxic, partial curve, poor fit]"
same,Potency,[6],active: 14.8 µM
same,Potency,[7],inactive
same,Potency,[13],active: 30.6 µM
same,Potency,[8],"inconclusive [cytotoxic, full curve, poor fit]"
same,Potency,[14],"inconclusive [inhibitor, partial curve, poor fit]"
same,Potency,MKL-1,"inconclusive [inhibitor, single point]"
same,Potency,WaGa,"inconclusive [inhibitor, partial curve]"
